# From paper PMC4336329 (PLoS ONE, 2015)
# Screen size: about 310,000 compounds; about 2,200 (0.71%) showed an effect of 50% or more. Effects have a minus sign here. This is one part of the list.
# Target: human ether-à-go-go-related gene (hERG) potassium channel (human, UniProt Q12809)
# Test: primary screen, population patch clamp on CHO cells stably expressing hERG
# human ether-à-go-go-related gene (hERG) potassium channel, sequence (Q12809 whole entry, looked up): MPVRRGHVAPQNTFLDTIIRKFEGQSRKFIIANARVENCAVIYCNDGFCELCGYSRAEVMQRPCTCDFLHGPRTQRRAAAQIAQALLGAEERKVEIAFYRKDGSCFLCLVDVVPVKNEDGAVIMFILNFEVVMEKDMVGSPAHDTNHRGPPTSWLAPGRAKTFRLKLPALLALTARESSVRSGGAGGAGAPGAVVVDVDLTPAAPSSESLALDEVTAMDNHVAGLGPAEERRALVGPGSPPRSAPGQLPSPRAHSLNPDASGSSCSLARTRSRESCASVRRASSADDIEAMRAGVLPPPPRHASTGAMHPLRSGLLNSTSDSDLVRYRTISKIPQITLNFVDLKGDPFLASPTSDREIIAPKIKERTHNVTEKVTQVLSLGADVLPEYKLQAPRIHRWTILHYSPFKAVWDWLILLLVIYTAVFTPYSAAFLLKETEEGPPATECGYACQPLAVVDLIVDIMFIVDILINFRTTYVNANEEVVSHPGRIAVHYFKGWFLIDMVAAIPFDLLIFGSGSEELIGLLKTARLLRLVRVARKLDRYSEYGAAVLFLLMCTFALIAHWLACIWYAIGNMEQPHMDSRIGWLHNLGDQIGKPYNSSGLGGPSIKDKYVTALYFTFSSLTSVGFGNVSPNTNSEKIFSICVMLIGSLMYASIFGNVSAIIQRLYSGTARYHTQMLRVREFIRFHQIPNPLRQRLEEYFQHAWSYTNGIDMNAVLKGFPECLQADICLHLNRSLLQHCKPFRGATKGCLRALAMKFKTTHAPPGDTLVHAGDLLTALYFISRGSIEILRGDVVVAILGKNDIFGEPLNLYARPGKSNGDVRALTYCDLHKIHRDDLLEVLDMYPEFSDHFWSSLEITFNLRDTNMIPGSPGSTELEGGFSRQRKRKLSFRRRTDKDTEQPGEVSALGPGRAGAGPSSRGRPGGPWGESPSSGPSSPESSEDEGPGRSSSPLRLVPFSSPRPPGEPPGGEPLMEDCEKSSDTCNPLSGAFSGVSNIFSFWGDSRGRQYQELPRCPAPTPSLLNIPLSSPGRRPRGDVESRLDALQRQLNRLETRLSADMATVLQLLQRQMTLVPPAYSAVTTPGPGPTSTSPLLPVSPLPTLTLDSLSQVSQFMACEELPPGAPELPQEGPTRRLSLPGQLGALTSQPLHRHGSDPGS
row,SMILES,"hERG current change (%, negative = inhibition) at 1uM"
1,COc1ccc(OC)c(NC(=S)N2CCCC2)c1,10.4%
2,CNC(=O)Nc1ccccc1C(=O)Nc1ccccc1,4.58%
3,COc1ccc2[nH]cc(CCNC(=O)c3ccco3)c2c1,9.61%
4,Cc1cccc(NC(=S)NC(=O)Cc2ccccc2)c1C,22%
5,CCC(C)NC(=O)C1CCC(CNS(=O)(=O)c2ccc3c(c2)N(C(C)=O)CCO3)CC1 (stereo not drawn),7.13%
6,COc1ccc2nc(NC(=O)C3CCCO3)sc2c1 (stereo not drawn),2.36%
7,Cl.O=C(NCCCN1CCOCC1)c1cc2c(s1)CCCC2,-10.2%
8,Cc1ccccc1N1CC(C(=O)N2CC(C)OC(C)C2)CC1=O (stereo not drawn),3.75%
9,CCN(CC)S(=O)(=O)c1ccc(NCC2COc3ccccc3O2)c([N+](=O)[O-])c1 (stereo not drawn),5.29%
10,COc1ccc(C(=O)NC2=NCCS2)cc1,15.9%
11,COc1ccc(OC)c(-c2cc(-c3cccnc3)nc(N)c2C#N)c1,10.3%
12,Cc1sc2nc3c(SC(C)C(=O)O)cc(C(=O)c4ccccc4O)cn3c(=O)c2c1C (stereo not drawn),12.8%
13,Cc1ccc(NC(=O)CN2C(=O)NC3(CCCCC3C)C2=O)cc1S(=O)(=O)N1CCCCC1 (stereo not drawn),-0.528%
14,CC(=O)c1ccc(N2CCN(C(=O)C3CCN(C(=O)Nc4ccccc4)CC3)CC2)cc1,12.2%
15,Cc1cccc(Nc2nc(-c3ccncc3)cs2)c1,-2.6%
16,CCc1ccc(N2C(=O)CN(Cc3ccc(OC)c(OC)c3)C2=S)cc1,2.78%
17,CC(C)CCn1c(SCCc2ccccc2)nc2c1c(=O)[nH]c(=O)n2C,10.3%
18,Cc1sc2nc(CSc3nnc(Cc4cccs4)n3C3CCCCC3)[nH]c(=O)c2c1C,8.21%
19,Cc1cccn2c(=O)c3cc(C(=O)NCCC4=CCCCC4)n(C)c3nc12,19.3%
20,COc1ccc(-c2nnc(SC)nc2-c2ccc(OC)c([N+](=O)[O-])c2)cc1[N+](=O)[O-],9.65%

row,SMILES,"hERG current change (%, negative = inhibition) at 1uM"
1,O=S(=O)(c1ccc(F)cc1)N1CCN(c2nc(-c3ccc(F)cc3)cs2)CC1,5.33%
2,CC(=O)Nc1nc2ccc(S(=O)(=O)N3CCCC3)cc2s1,0.909%
3,Cc1cc(/C=N/Nc2nc(N)ncc2[N+](=O)[O-])c(C)n1-c1ccccc1F,19.1%
4,COc1cc(OC)c(S(=O)(=O)Nc2ccc(C)cn2)cc1NC(C)=O,2.23%
5,CCc1ccc(NC(=O)NCCN2CCCCC2)cc1,-19.9%
6,CCS(=O)(=O)N1CCN(c2ccc([N+](=O)[O-])c(NC(C)c3ccccc3)c2)CC1 (stereo not drawn),-8.41%
7,CCOC(=O)C1=C(N)Oc2ccccc2C12C(=O)N(CC(=O)OC)C(CC(=O)OC)=C2C(=O)OC (stereo not drawn),9.82%
8,CCOC(=O)c1[nH]nc2c1C(=O)N(Cc1ccccc1)C2=O,12.9%
9,COc1ccc(C)cc1NC(=O)Nn1cnnc1,-5.18%
10,O=C(O)C1Nc2c(cccc2C(F)(F)F)C2C=CCC12 (stereo not drawn),13.2%
11,O=C1COc2ccc(C(=O)COC(=O)CCSc3ccc(Cl)cc3)cc2N1,16%
12,CCC1(C)Cc2c(C#N)c(N)n(N)c(=S)c2CO1 (stereo not drawn),12.9%
13,CC1(c2cnc(Nc3ccccc3)s2)CCC(=O)O1 (stereo not drawn),11.7%
14,Cc1ccc(-c2nnc(-c3ccc4c(c3)OCO4)o2)cc1,0.4%
15,CCc1ccc(NC(=O)C(=O)c2ccccc2NC(C)=O)cc1,-4.93%
16,COCCCNc1oc(/C=C/c2ccccc2)nc1C#N,6.06%
17,Cc1oc(-c2cccs2)nc1CN1CCC(CO)(CCOc2ccccc2)CC1,-30%
18,COC(=O)c1ccccc1SCC(=O)Nc1ccc(N2CCOCC2)cc1,15%
19,COC(=O)c1sccc1NC(=O)c1ccc(OC)c(OC)c1,8.18%
20,Cc1cccc(N=C2NC(=O)/C(=C/C=C/c3ccco3)S2)c1,11%

row,SMILES,"hERG current change (%, negative = inhibition) at 1uM"
1,N#CC(c1ccc(Cl)cc1)N1CCOCC1 (stereo not drawn),12.8%
2,CC1Nc2nc(N(C)C)[nH]c(=O)c2NC1C.Cl.O (stereo not drawn),11.4%
3,O=C(Nc1sc2c(c1C(=O)NCCO)CCCC2)c1ccco1,-3.09%
4,O=C(COC(=O)CSc1ccc2ccccc2c1Br)NC1CC1,17.2%
5,O=C(COC(=O)c1cc(Cl)ccc1O)NC(=O)NCc1ccccc1,5.88%
6,CCn1ccnc1CN1CCCCC1C(=O)Nc1ccc(Oc2cccnc2)cc1 (stereo not drawn),4.5%
7,Cc1ccc(-c2cc(C(=O)NCc3ccc4c(c3)OCO4)no2)cc1,8.98%
8,CC(C)Oc1ccc(C(CC(=O)NCc2ccco2)c2ccccc2)cc1 (stereo not drawn),3.21%
9,Cc1[nH]c2ccc(Br)cc2c(=O)c1CN1CCOCC1,-2.66%
10,Cc1ccc2oc(C(F)(F)C(F)F)cc(=O)c2c1,12.3%
11,COc1cc(/C=C/C2=NNC(=O)CC2)cc(OC)c1OC,16.6%
12,O=C(NCc1nc(-c2ccc(Cl)cc2)no1)c1ccco1,4.88%
13,CC(C)c1nnc(NC(=O)C2CCCN2C(=O)Nc2ccccc2)s1 (stereo not drawn),14.7%
14,CC(C)Oc1ccc(-c2nc(NCC3CCCO3)c3ccccc3n2)cc1 (stereo not drawn),13.7%
15,CC(=O)NNc1ncnc2c1cnn2-c1ccc(C)cc1,7.69%
16,CCc1ccccc1OCc1nnc(N)s1,6.39%
17,O=C1c2ccccc2CN1c1ccccc1,14%
18,CCC1C(=O)C(CC)C(c2ccccc2)NC1c1ccccc1 (stereo not drawn),13.8%
19,Cc1ccc(NC(=O)C2CCCN(C(=O)c3ccc(Cl)cc3)C2)cc1 (stereo not drawn),1.45%
20,CC(=O)Nc1ccc(NC(=O)c2ccccc2S(=O)(=O)c2ccc([N+](=O)[O-])cc2)cc1,12.1%
